# Data published in the supplement of paper PMC11417369.
# ± gives the standard deviation of the averaged measurements. This is one part of the list.
# Tested on: PfAP2-LT AP2 domain (GST-tagged)
# Test: gcPBM binding intensity (ln(normalized median fluorescence intensity)); higher = stronger DNA binding
# How it was run: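 Plasmodium falciparum DNA-binding domains carrying a GST tag were expressed in E. coli and applied for 1 h, at about 25 μg on average, to an Agilent 4 × 180k array. The array held primer-extended double-stranded 36-bp intergenic genomic probes together with negative controls, and binding took place in 1× PBS with 1% milk, 0.2 mg/ml BSA, 0.5% salmon testes DNA and 0.03% Triton X-100. An Alexa488 anti-GST antibody detected bound protein, and the array was scanned at 488 nm. Binding intensity is taken as the highest Masliner-normalised natural-log median intensity across replicate spots of either probe orientation.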
row,Sequence,gcPBM binding intensity (ln)
1,ATTTATTTAAACAAATCACACACAAATATATATACA [CACACA_site8622],9.04 ± 0.35
2,AGAAAAGAGAAAAGTAGTACAAAGGATCATTTAAAA [XGTACX_site5294],8.82 ± 0.52
3,TTAAGTCCGTTAACAGTGCATTTTTTCTTTTATGTA [GTGCAC_site9867],8.79 ± 0.33
4,TAATGAAAAAATAAAAGAATAAATAAATAAATAAAT [TGCATGCA_negctrl_site130],8.69 ± 0.46
5,ATTAAAAAAATATAAACACACAAAAAAAAAATATAC [CACACA_site1100],9.11 ± 0.56
6,TATAAAAAGCATAACACACACATGTCAATATATATA [CACACA_site1111],9.31 ± 0.35
7,AAAAAAAAAATATGTACACACATATATAATACATAA [CACACA_site1639],9.05 ± 0.38
8,ATAGAACAGAAAAGGCGTACAATAATATGTAAACAA [XGTACX_site2828],9.16 ± 0.5
9,TATAAATTTAAAATGACACACACTAAAATTATTTAA [CACACA_site1239],8.87 ± 0.44
10,GTATTATTATTATGCACACAAAAATATTTATACATA [CACACA_site3656],8.95 ± 0.35
11,TATATATATATATATATATATATATATATATGTATA [TGCATGCA_negctrl_site17],9.8 ± 0.38
12,CATATGTCTTGAGATCGTACGTTATTTTTTTTATTT [XGTACX_site1381],8.97 ± 0.38
13,AAGAATATTAATATAAATAAGTAAATAAATAAATAA [CACACA_negctrl_site417],8.74 ± 0.47
14,AAAAATTATATATATATATATATATATATATGTATA [GTGCAC_negctrl_site488],9.23 ± 0.21
15,TGGTAAATTTACCGTTGTACATTCATTTATAACATT [XGTACX_site8910],8.79 ± 0.39
16,ATATATGTATTTAATACACACAAAACTTTCATTCCA [CACACA_site3531],9.04 ± 0.35
17,ATATTCATTAACCACACACACAAAAAAAATAAAATT [CACACA_site3801],9.59 ± 0.26
18,ATACATATATGCTTCTGTACACATAATTTATAAAAA [XGTACX_site7000],8.59 ± 0.33
19,TTTTTAGAAAGACATGCATGTAATAAAAATAAATAA [TGCATGCA_site685],9.09 ± 0.54
20,CTATTTCAATTTAGTGCACACATTTTAATTTATAAG [CACACA_site2040],8.81 ± 0.45
21,ACATACACATATACATGTACATATATATATATATAT [XGTACX_site5082],9.68 ± 0.3
22,ATTAAAACAAAATGTACACACATATCATTTAATGAC [CACACA_site6543],9.06 ± 0.38
23,TATGAAAAGATATATACACACATAATAAAGGTATAT [CACACA_site7713],9.17 ± 0.44

row,Sequence,gcPBM binding intensity (ln)
1,CATTATTATTAACATACACACGTGTTAAATACACCC [CACACA_site6118],9.1 ± 0.49
2,TTTTAATCTTAATTATGTACATATAAAATGTGTATA [XGTACX_site7382],8.58 ± 0.4
3,TCTATACCTATTCTTACACACATATGTATATATATA [CACACA_site563],9.22 ± 0.34
4,TTTTTTTTTTTTGAAACATGCATTGTTTTATTCTTA [TGCATGCA_site15],8.61 ± 0.45
5,AAAAAAAGATTATACACACACATATATAAACCTACA [CACACA_site710],9.46 ± 0.28
6,TTTTTTTTTTTTTGTTGTACAATACTTAATCATTAT [XGTACX_site3422],8.66 ± 0.47
7,ATATATATATAATCAAGTACACAGTAATAAAAAGAA [XGTACX_site1070],9.18 ± 0.4
8,AATAATAACTGTAGGTGTACGTAAAAAAAAAATTAT [XGTACX_site3133],8.99 ± 0.42
9,ATTGTGTTCATCAGCACACACAACATCATGCAATAA [CACACA_site6960],9.2 ± 0.31
10,TAAATGCACATATACACACACCCAATTTTAAGTTTT [CACACA_site7428],9.43 ± 0.28
11,ACATCAAGAATTATTAAGAATACGGATAGATAAAAT [GTGCAC_negctrl_site261],8.72 ± 0.46
12,TTAATTTCATTTTCTACACACCTATCCTTTTTTTTT [CACACA_site772],8.96 ± 0.48
13,ATACATATTACATGTTGTACTCCAACAAAAATGCCC [XGTACX_site3201],8.93 ± 0.4
14,AATAAAAAAAGTTTTTTTTTTTTTTAAACAATAGAC [CACACA_negctrl_site1061],8.2 ± 0.58
15,AAAAATTTAATGAAATGTACATATATGTTATTAATA [XGTACX_site6091],8.54 ± 0.43
16,AATAACCACCAACACACACACATATATATATATATA [CACACA_site3540],10.2 ± 0.24
17,ATAATAATAATAAAAAGTACATTTAATTATATAGAA [XGTACX_site7742],8.69 ± 0.56
18,AAGAATGTTAATAGTACACACAATTATTATATAAAT [CACACA_site3739],9 ± 0.45
19,TATATGTTTTAAAAGTGTACTTTAGTTTCAATTTTT [XGTACX_site4269],8.47 ± 0.59
20,TTTTGTTTTGTTTTGTTTTGTTTTGTTTTATTTTAT [GTGCAC_negctrl_site383],8.9 ± 0.43
21,AATGTATATATGTAATGTACATATGTAATGTATATA [XGTACX_site6509],9.1 ± 0.4
22,AATATAGATATAACCACACACATACATCTAATTCTA [CACACA_site1760],9.42 ± 0.3
23,GAAAAGAACAAGAGCATGCACTTAATAAGAATAATA,8.99 ± 0.45

row,Sequence,gcPBM binding intensity (ln)
1,TGTTTCTTATTTTTTTCACACACTAAACATTTCAAA [CACACA_site2218],8.93 ± 0.44
2,TTTCAAAATGTGTAAAATAAAAATAATATCATTACA [TGCATGCA_negctrl_site521],8.45 ± 0.44
3,ATGTGATATAAGTACACACACATATGTATATAGAAT [CACACA_site1823],9.79 ± 0.3
4,AAAAAAGTTGTATTTGCACACATAAAAAAAAGATAT [CACACA_site3839],9.08 ± 0.44
5,AATTTAAAAATGGACACACACAAAAAATAATACTTA [CACACA_site250],9.36 ± 0.46
6,GTATATTATATTGGGTGTACCATATATAATATAATC [XGTACX_site8579],8.7 ± 0.41
7,AAAAATTAACAAAAGGTGCAATTTATTTATTAACGG,8.62 ± 0.45
8,TTATAAATAAAAAATACACACATATATATATATATA [CACACA_site207],9.64 ± 0.2
9,AACTTGTATTTATACACACACACACTGTCTTTTTTT [CACACA_site7009],9.82 ± 0.35
10,TAAAATTTTATAAAGGAACACACATTTTTTTTTTTT [CACACA_site8740],8.52 ± 0.44
11,TATTTTAATATGTATACATGCATACCTACTCATACA [TGCATGCA_site779],8.87 ± 0.5
12,TAGACAAAATATAATGCACACTATTATTTTTATTTA [CACACA_site5508],8.66 ± 0.47
13,AAGAAAAATATATAAATAAATAAATATATAAATATA [CACACA_negctrl_site836],8.55 ± 0.58
14,ATTAATATATTATCATGTACACAAAAATAATTTTAT [XGTACX_site7257],8.61 ± 0.32
15,GGAAACAAAAAATATATACACACTAATCATAAAAAA [CACACA_site7890],9.03 ± 0.43
16,TAAAAATATATATGATTGCACTTAGGACAATATATA,8.65 ± 0.41
17,TATTCTCTCTTATGAACACACATTTTTATTTTCAAA [CACACA_site7554],8.78 ± 0.45
18,ATATATATGTGTAAAAGTACATATATTTTGAAATAT [XGTACX_site4024],9.08 ± 0.42
19,TTTTAATAAAAGCCCATGCACACCTTAGAAAGTTTT [CACACA_site346],8.56 ± 0.41
20,TAAATATATATTATATGTACTTATATATATATATAT [XGTACX_site4448],8.79 ± 0.28
21,TTTTTCATTTTTAAAATAATTATAATATTATACATA [XGTACX_negctrl_site43],8.35 ± 0.44
22,TAAATCAGCCATAACACACATACATATATACATAAA [CACACA_site396],9.14 ± 0.37
23,AGCAAATAAATAAATAAATAAATAAATATATATATA [TGCATGCA_negctrl_site40],8.79 ± 0.46

row,Sequence,gcPBM binding intensity (ln)
1,ATAATTAACAAATACACACACACACGCCCACAAAAA [CACACA_site6389],10 ± 0.11
2,CAATCAAATGGACACACACACACCTAAACATAAAAG [CACACA_site5524],10 ± 0.3
3,ATTAAAAAATTACAAGCATGCTTGTTAAAATTTTTT [TGCATGCA_site941],8.39 ± 0.44
4,CTTTTTTTTTTAAATTGTACAAATGTGATGTAATAG [XGTACX_site3219],8.36 ± 0.4
5,TATATATATGTATATGTGCACAGTTTTCTTATTAAA [GTGCAC_site9990],8.73 ± 0.4
6,TGGGCACCCATATACACACACAAATACAATGATAAA [CACACA_site4762],9.32 ± 0.52
7,AAAAAAAAAAAAATGTGTACATACATATATTTATAT [XGTACX_site3076],8.75 ± 0.45
8,GGAAAAGGTATCCGTTCACACATAAATGGATACCAT [CACACA_site5072],8.8 ± 0.42
9,ATTACATATTGATAAGTGCAAGTGTGAGAAATGTTA,8.9 ± 0.38
10,TCTATATAGATTTGCACACATAAAAATGCTTATATA [CACACA_site2389],9.07 ± 0.26
11,TTTTATTTATTTTATTGTACATATATAAAACTATGA [XGTACX_site3476],8.53 ± 0.49
12,AATATATTATATATATGTACATATGTGTATACATTT [XGTACX_site937],8.91 ± 0.43
13,CCCACATAAAAAAATAAACACACATATGTATATATA [CACACA_site9040],9.17 ± 0.4
14,TAATCAATTCAATATTGTACGATATTTACCTTTAAA [XGTACX_site4678],8.64 ± 0.53
15,AAATGGGCTTATTTATGTACTTAAATATATCTACCC [XGTACX_site3823],8.85 ± 0.61
16,TACATATATATATACACACATACATATATATACGCA [CACACA_site792],9.11 ± 0.28
17,AACCTCGTGTAATATGCATGTTCCCTTCAAAGTTTT [TGCATGCA_site459],8.82 ± 0.34
18,ATTATACATTTTAGATGTACATATTTTAAATTTAAT [XGTACX_site5174],8.62 ± 0.36
19,AGAAATTAATCGAAGTGTACATATAAACATACATAT [XGTACX_site5518],9 ± 0.41
20,ATATTTTGTATAATCACACACACTATTCTTAAATAG [CACACA_site7270],9.23 ± 0.37
